Laboratory results taken from the supplement of paper PMC3334620.
In all, about 33,000 sequences were measured (“E-score (-0.5 to 0.5)”: median about -0.054, highest 2% from about 0.39 on). This is one part of the list.

The sequences below were run against Ylr278c (UniProt Q05854) (assay: PBM E-score (8-mer binding enrichment) (E-score (-0.5 to 0.5)); higher = stronger / more preferred TF binding; most listed sequences are background and not binding sites). Conditions: protein concentration: 200 nM; construct: GST-DNA-binding domain.
Summary of the method: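 For each ungapped eight-base word taken together with its reverse complement, the Universal PBM Analysis Suite assigned an E-score. Binding data came from GST-tagged yeast transcription factors, applied at about 100-200 nM, on universal all-10-mer Agilent arrays made double-stranded by primer extension. Fluorescent anti-GST marked bound protein, and scans were normalised with masliner.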

Sequence | PBM E-score
GTCACCCA | -0.109
CTTACACA | -0.148
AAGAAAAC | 0.0482
ATATCGAA | 0.027
ATACGGAC | 0.242
ACGATCTC | -0.0738
AAGGTTCT | -0.0412
CCTGGTTC | 0.106
CTATGTCC | 0.163
ACCCACAG | -0.375
CGCGAATA | 0.172
CAGAAATC | -0.0409
CAGACGTC | -0.205
CCGTGAAC | 0.163
CGATTTTA | 0.0784
CAGCGGGA | 0.0661
AGAAAATC | 0.162
ACGATTTC | 0.033
AGATCGAT | -0.0782
ACACACCG | 0.0986
AGTCTCTG | -0.225
ATCAAGTC | -0.138
GCCGCAAA | 0.18
ACCCTAAA | 0.099
TATTAGAA | -0.0213

Sequence | PBM E-score
AGGAAAAA | -0.148
CCCATGGG | 0.0687
GTATACTA | -0.186
ACCATGGG | -0.158
GCAGGTAC | -0.107
CGTAATGC | 0.0396
AATACCTA | -0.155
TCAAGAAA | 0.0296
AGAAGCAT | -0.11
ATGCTACC | 0.0654
CGCTACAG | -0.103
AAAGCGAT | 0.0361
CAAGACGC | 0.107
GGAAAAAA | 0.247
ATTCGATA | -0.0972
GAGAAAAA | 0.199
CACCAAGG | -0.0697
TCCGGTAA | 0.44
GCGGTGGA | 0.107
AGGCGGAT | 0.237
CCTTACTC | 0.126
ATTGCGAC | 0.15
CACTTCTC | -0.0425
CGGCTGAG | 0.0595
CTCCCGAG | -0.0619

Sequence | PBM E-score
CGAGTGCA | 0.0654
AGCTTATC | 0.0115
CTCGTAAG | 0.0182
GCATGTAC | -0.133
GGTGAGCA | -0.141
CATAGCAA | -0.22
ATATTAAA | 0.0784
CTTTACGA | -0.214
CGGTACCA | 0.115
AAAAAGGA | -0.0903
TGTTAAAA | -0.186
CCTGAAGC | -0.291
ACGCAGGC | -0.0932
AAGTCCTG | -0.106
TAAGGTGA | -0.147
CGAAGTAG | 0.0632
CCTAGGCA | -0.106
ACGTTAGC | -0.0336
ATGTACTG | -0.0707
CAGTAAAC | 0.0397
CTCAGGTA | -0.236
ACGGCTCC | 0.2
ATTAATAC | 0.1
ACAACGAC | 0.0542
GAGGCCTC | 0.0403

Sequence | PBM E-score
AGTAAAGA | 0.0362
AATTTATC | 0.122
ACCTGGAC | -0.174
CTAGATAC | -0.0911
AATCGGAG | 0.466
CAAGACAA | -0.0931
AAAACTAT | -0.0196
TGCTCCCA | -0.175
GGGTGCCA | -0.0219
CTAGGTCC | 0.138
AGCCACCG | 0.126
GAACACCC | 0.014
GCGACAGA | 0.12
AGGTAAAA | -0.0726
TTGTACAA | -0.139
GCAGCTGA | -0.0542
AATCTTTG | -0.0854
CTACAAAA | 0.119
GATTCCCC | 0.22
AACTGTTG | -0.212
GAAGTCGA | -0.112
ATGGTTTG | 0.0845
ATAGCAGA | -0.174
AAGCCGCA | 0.107
AGCCAAGC | -0.203

Sequence | PBM E-score
GCTCTCAA | -0.106
GAAAGGCC | 0.223
GGGAACCA | -0.206
GGGGACTA | -0.2
CTGGTACA | -0.242
CAAAACAG | -0.17
AGTTCTTC | -0.0597
ACTACACG | -0.145
ATCTTTTG | -0.0886
CGCTTCAA | 0.00316
CCTTTCGA | -0.0883
GCGCTTTA | -0.00327
CACGGCTA | 0.11
CTATGACC | -0.139
TCGGACCA | 0.379
AACTATCG | -0.0554
GCGAGATA | 0.0394
ACGAGAGC | -0.134
AGGGCTAA | -0.0787
ACTAGCTA | -0.0942
AGTTACTA | -0.127
CGATCAAG | -0.00728
GACTAGGA | -0.0535
CTGGCCTA | -0.192
GAGCAACA | -0.0838

Sequence | PBM E-score
CGGCGAGC | 0.234
GCGATAAA | 0.0153
ACTGGGAG | -0.0587
CGAAGACA | 0.0958
AGGCACTG | -0.178
CCTGCAAG | -0.217
TGACGGAA | 0.286
AGAGCCCT | -0.187
AACGCGCT | 0.0261
CCACTGGC | -0.0844
GCAAATTA | 0.14
AAGTTGCC | 0.111
ATGGCCCG | 0.171
AAGGCTCA | -0.23
CATTCGTA | -0.188
AGGGGTCA | -0.155
TACTCTAA | -0.118
ACATCATG | -0.029
GCTGACAC | -0.126
AGCGGGGG | -0.115
CAGGCGAA | -0.345
AATAGTAA | -0.119
CGAGTTAG | -0.103
GACAGGGA | -0.125
AAAGCGTT | -0.153

Sequence | PBM E-score
CCCGTAGG | -0.0731
CTACACAA | 0.0469
GGCACCCA | -0.0532
ATAGCCGG | 0.388
CCTCCATA | -0.193
CGCTCCCA | 0.0833
CCTAACTA | 0.0582
GTTTGTAA | -0.0507
CCCAGATC | -0.122
ACATTCTG | -0.246
CAAGAGTC | -0.0993
GCATAACC | 0.0681
ATACCCGG | 0.31
ATGGAAAC | -0.0103
CACTGGGG | -0.0212
CAGACAAA | -0.0575
GCGTCGTA | 0.0408
CCTGCAGA | 0.0252
AACCGCCC | 0.0416
CACAATGC | 0.0426
GAAAGCAC | -0.0922
ATGAATCG | -0.157
GCAGTGGA | -0.259
ACACTTAG | -0.0913
AGCGGGAC | 0.112

Sequence | PBM E-score
GATTACGA | 0.0367
GACTGCCC | -0.166
GATGGAGC | -0.0617
AAGGCTAA | -0.125
CTGACGGA | 0.217
ACACCAAG | -0.192
AATCGAGC | -0.0727
AACTTCTG | -0.197
CCGCGTAC | 0.19
ACCGACGC | 0.0804
CCAAGGGA | -0.289
CACGGCGA | 0.0929
CCTTCACA | -0.249
ACTACTCC | 0.293
GATGTATA | -0.00628
TCCTGGAA | -0.0446
CCCACACC | -0.0326
GGTGTTCA | -0.0349
AGCAGCAT | -0.0117
CGAGCTGA | 0.0184
AGGTGACC | -0.216
GTACCTAC | -0.298
ACCTGTTA | -0.262
CTCACCGA | 0.112
ACTTTTGC | -0.0939

Sequence | PBM E-score
CTAGCGTA | -0.0464
AGACTAGC | -0.321
AAGTTGCT | -0.119
ACAGGACA | -0.0363
CGCACTGA | -0.078
GCTAAGGA | -0.265
ACCCGCCG | 0.307
GGACACTA | -0.0657
AGTATCGA | 0.0149
ACACCCAA | -0.0873
AGGCATTG | -0.0254
CGACAGCG | 0.227
TACGAATA | -0.197
ATGTTGGC | -0.0195
AAGTGACC | -0.0859
CGAAGGCA | -0.0856
CCTTTGAC | -0.121
CTCTTGGC | -0.239
CGCGTCAC | -0.174
ATTTCAGG | 0.0318
GCCATTGA | 0.0686
CCAACTTA | 0.0436
GAAGCTGC | -0.17
AAGACTAA | -0.00975
ATGTCACA | -0.242

Sequence | PBM E-score
TGATGGAA | -0.179
AATGTGAG | -0.264
GTTTAAAA | -0.0825
AGAATGCG | 0.0983
AGCAGCCG | 0.0227
TCAGCCAA | -0.183
ATCTCGCA | -0.0496
CGACTGCC | 0.0706
ATTAAACG | -0.0237
ACAGCTCG | -0.093
GACCTTCA | -0.0306
CTAGTAAA | 0.0822
ACAGGCGA | -0.186
CTATCGTC | -0.164
CTGGCTTC | -0.198
ACGAAAAC | 0.0784
AAAGTCGT | -0.213
AAGCGGCT | 0.188
ATCCCAAC | -0.141
CAAAACTG | -0.0958
AAGGACGT | -0.168
TATGGGGA | 0.0927
ACATGCCG | 0.264
TAGCGCTA | 0.0433
ATCGGTAC | 0.157

Sequence | PBM E-score
ATCATAGA | -0.0941
ATGCTTGG | -0.184
CTACGAGA | -0.136
ATCGATCC | -0.039
CATGCGCG | 0.137
AAGAAGTC | 0.101
AGAAGAGA | -0.112
ATTTTTCA | 0.00958
CCTCCCCG | 0.232
TAACCGCA | 0.0534
AGGAATTA | 0.0107
CGATCAAA | 0.032
GGGTTAAA | -0.0115
AATGGAGC | -0.148
GGTCCGAC | 0.39
CAGTTTCG | 0.0435
CTTCTGTA | -0.0808
GCGACCGA | -0.0055
AACTTCCC | -0.0615
CGAGAAAG | 0.0584
AAGTTTGC | 0.00605
CGAGCAGA | -0.0726
GCCGCGGC | 0.406
AACGCACA | -0.0138
ATCATGGA | -0.227

Sequence | PBM E-score
ATTTCCTC | 0.182
CATAGCGG | 0.22
AACTCGTA | -0.162
CGCTCTGC | 0.0667
CAGATTCG | -0.0164
CCAGACCC | -0.15
ACCAGATG | -0.145
CCGAGGGA | 0.155
CGGGCCCC | 0.239
GGTGACAC | -0.0143
AGGCGCCA | -0.0124
GGGACTCA | -0.0868
TCGCACGA | -0.169
CCTGCTCC | 0.119
AATCATGA | -0.132
TCAAGACA | 0.0288
AGTTTGGC | -0.072
AATAAAAG | 0.0144
CCAAGTCA | -0.0673
AAAAACTT | -0.107
CAAACAGG | -0.313
CAGCGGGC | 0.102
CAGCTCCA | -0.152
AATACAAG | 0.0239
CCGCCCCC | 0.168

Sequence | PBM E-score
CTCGAAAC | -0.13
GCTTCATA | -0.0532
AAGCAAAA | -0.0914
CACACGGG | 0.126
CTGTGGGA | -0.191
GCGATAGC | -0.142
TAGAGAAA | -0.0468
CTAATTTC | 0.0625
CAAATACA | 0.00083
AGCTCACC | -0.00625
AGTCCGAG | 0.43
ACAACCAT | 0.018
AGCACTGG | -0.158
CCACTGAG | -0.208
GATCCAAA | -0.0479
TACTACTA | 0.0855
ACCGCATC | 0.206
CGCGATTC | 0.175
AGATCACC | 0.0118
ACACTCGT | -0.246
CTCATCTA | -0.0383
TACCGGGA | 0.381
AGTACAGA | -0.11
AACATTAA | -0.0448
CGAATCAG | -0.203

Sequence | PBM E-score
ATACCTAG | -0.167
AAGAGGAG | -0.103
AGTGTGTA | -0.216
GAGTTATC | 0.291
CACCTTTA | -0.17
GATTCAAA | -0.234
CATCCCAC | -0.135
ACTAATGG | 0.0475
GATAGTGC | -0.00932
CGGCGCCA | 0.214
ACGCCCCG | 0.229
CCTGACAC | -0.128
CAGAGCCG | 0.0202
AATGTCCA | -0.115
CAAATTCA | -0.0408
AACAAGCT | -0.0579
GTTTGGGA | -0.133
CCACCCGC | 0.201
ACACCACT | -0.0175
